{"source": "PubChem BioAssay AID504832", "about": "(National Center for Advancing Translational Sciences (NCATS), 2011)", "note": "Hit rate of the full screen: of about 310,000 compounds, about 18,000 (5.8%) were called active. This list was built around the results that the source calls inconclusive (neither active nor inactive); the mix of calls is not that of the screen. Calls follow the shape of the dose curve; as a rule, active = well fitted inhibition curve with a large enough effect; inconclusive = small, poorly fitted or top-dose-only effect, or another doubt; inactive = no such curve, though single readings can be large or run the other way. No potency is given beside an inconclusive call; the fits are too rough. Potency is read from the fitted curve at half-maximal effect; tags tell the direction and shape of the fitted curve.", "data": [{"experiment": "Primary qHTS for delayed death inhibitors of the malarial parasite plastid, 48 hour incubation", "details": "P. falciparum luciferase growth in erythrocytes; series mostly up to 28.7 µM", "method_in_brief": "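First compound was added to culture medium, then infected red cells at 0.1% parasitemia and 2% hematocrit (final). After incubation at 37 C under 5% CO2, luciferase detection reagent was dispensed and light output recorded.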", "values": [{"smiles": "O=C(Nc1cccc(S(=O)(=O)N2CCCC2)c1)c1cccc(S(=O)(=O)N2CCOCC2)c1", "Potency": "active: 11.7 µM"}, {"smiles": "Cc1cccc(C)c1NC(=S)N(Cc1ccccc1)Cc1cccnc1", "Potency": "inconclusive [inhibitor, single point]"}, {"smiles": "O=[N+]([O-])c1cccc2ccc(/C=C/c3ccc(C(F)(F)F)cc3)nc12", "Potency": "inconclusive [inhibitor, single point]"}, {"smiles": "O=C(c1ccccc1)N1N=C(c2ccccc2O)CC1c1ccccc1", "note": "(stereo unspecified)", "Potency": "active: 5.86 µM"}, {"smiles": "CC1CC(C)CN(C(=O)C(C)N2CCN(S(=O)(=O)c3cccs3)CC2)C1", "note": "(stereo unspecified)", "Potency": "inconclusive [inhibitor, single point]"}, {"smiles": "CCOc1cc2c(cc1OCC)-n1cccc1C(c1cccc(F)c1)NC2", "note": "(stereo unspecified)", "Potency": "active: 13.1 µM"}, {"smiles": "CCC(=O)N1CCc2cc(S(=O)(=O)N3CCN(c4ccccc4Cl)CC3)ccc21", "Potency": "inconclusive [inhibitor, single point]"}, {"smiles": "CC(C)c1ccc(C(=O)Nc2ccc(N3CCOCC3)cc2)cc1", "Potency": "inconclusive [inhibitor, partial curve]"}, {"smiles": "CN(C)CCn1c(NC(=O)c2ccc(Cl)cc2)nc2ccccc21", "Potency": "inconclusive [inhibitor, single point]"}, {"smiles": "Cc1nc(N2CCN(C)CC2)c2c3c(sc2n1)CCCC3", "Potency": "inconclusive [inhibitor, full curve]"}, {"smiles": "CCN(C(=O)C(C)Sc1ccc(S(=O)(=O)N2CCN(C)CC2)cn1)c1ccccc1", "note": "(stereo unspecified)", "Potency": "inconclusive [inhibitor, partial curve]"}, {"smiles": "CCCCN(CCCC)CCn1cnc2c([nH]c3ccc(OC)cc32)c1=O", "Potency": "inconclusive [inhibitor, single point]"}, {"smiles": "COc1cc2cc3c(N)c(C(=O)NCc4ccco4)sc3nc2cc1OC", "Potency": "inconclusive [inhibitor, single point]"}, {"smiles": "CCOC(=O)c1sc(NC(=O)c2ccccc2C(=O)O)c(C(=O)OCC)c1C", "Potency": "inconclusive [inhibitor, single point]"}, {"smiles": "CSCCC(NS(=O)(=O)c1ccc2[nH]c(=O)c(=O)[nH]c2c1)C(=O)O", "note": "(stereo unspecified)", "Potency": "inactive"}, {"smiles": "COc1cccc(/C=N/Nc2cc(N3CCOCC3)ncn2)c1O", "Potency": "active: 0.928 µM"}, {"smiles": "O=C(CCNS(=O)(=O)c1ccccc1F)N1CCN(S(=O)(=O)c2cccc(F)c2)CC1", "Potency": "inconclusive [inhibitor, single point]"}, {"smiles": "Oc1ccccc1Nc1nc(NCc2ccccc2)c2ccccc2n1", "Potency": "active: 0.329 µM"}, {"smiles": "CN(c1ccc(OCC(=O)N2CCN(c3ccc(F)cc3)CC2)cc1)S(=O)(=O)c1cccs1", "Potency": "inconclusive [inhibitor, single point]"}, {"smiles": "N[C@H]1C(O)O[C@H](CO)[C@@H](O)[C@@H]1O", "note": "(stereo partly specified)", "Potency": "inactive"}, {"smiles": "CC(=O)Nc1ccc(Nc2nc(C)c([N+](=O)[O-])c(N(C)c3ccccc3)n2)cc1", "Potency": "inconclusive [inhibitor, full curve]"}, {"smiles": "CCN(CC)S(=O)(=O)c1ccc(NC(=O)c2cc(-c3cccs3)nc3ccccc23)cc1", "Potency": "inactive"}, {"smiles": "Cc1cc([N+](=O)[O-])cc(/C=N\\NC(=O)C2COc3ccccc3O2)c1O", "note": "(stereo unspecified)", "Potency": "inconclusive [inhibitor, single point]"}, {"smiles": "CCCCCNC1=CC(=O)CC(c2ccccc2)C1", "note": "(stereo unspecified)", "Potency": "inconclusive [inhibitor, partial curve, poor fit]"}, {"smiles": "Cc1cc(NC(=O)CCN2CCN(CCO)CC2)ccc1Br", "Potency": "inconclusive [inhibitor, partial curve, poor fit]"}, {"smiles": "Cc1ccc(NC(=S)NC(=O)c2ccccc2)cc1NC(=S)NC(=O)c1ccccc1", "Potency": "inactive"}, {"smiles": "CC(C)(C)c1ccc(OCCNC(=S)Nc2ccccc2)cc1", "Potency": "inconclusive [inhibitor, single point]"}, {"smiles": "Cc1cc(/C=C(\\C#N)C(=O)NC2CCCCCC2)c(C)[nH]1", "Potency": "inactive"}, {"smiles": "COCc1cc(=O)[nH]c(Nc2nc3ccccc3o2)n1", "Potency": "inconclusive [inhibitor, single point]"}, {"smiles": "COCC1CCN(Cc2cn[nH]c2-c2ccc(OC)c(F)c2)C1", "note": "(stereo unspecified)", "Potency": "inactive"}, {"smiles": "CCOc1cccc2sc(=NC(=O)c3ccc(S(=O)(=O)N4CCOCC4)cc3)n(C)c12", "Potency": "inconclusive [inhibitor, full curve, poor fit]"}, {"smiles": "CCc1ccc(/C=N/n2c(COc3ccccc3)n[nH]c2=S)cc1", "Potency": "inactive"}, {"smiles": "O=C(CN(Cc1ccco1)C(=O)c1cc(=O)[nH]c2ccccc12)Nc1ccccc1Br", "Potency": "inconclusive [inhibitor, partial curve, poor fit]"}, {"smiles": "CCCn1c(N2CCN(C(=O)Nc3ccccc3)CC2)nc2ccccc21", "Potency": "inconclusive [inhibitor, single point]"}, {"smiles": "Nc1c(-c2ccc(Cl)cc2)cnn1C1CCS(=O)(=O)C1", "note": "(stereo unspecified)", "Potency": "inactive"}, {"smiles": "COC(=O)c1ccccc1NC(=O)NC1CCCCC1", "Potency": "inactive"}, {"smiles": "CCOc1ccc(CN(C(=O)c2cc3ccccc3oc2=O)C2CC2)cc1", "Potency": "active: 11.7 µM"}, {"smiles": "O=C(NCCCN1CCN(c2ccc(F)cc2)CC1)c1cccc(N2CCCC2=O)c1", "Potency": "active: 11.7 µM"}, {"smiles": "CC(=O)N1CCc2ccc(S(=O)(=O)N3CCc4ccccc43)cc21", "Potency": "active: 13.1 µM"}, {"smiles": "O=C(CCC(=O)N(CC(=O)NC1CCCC1)Cc1ccccc1Cl)Nc1nccs1", "Potency": "inconclusive [inhibitor, partial curve]"}, {"smiles": "N#Cc1c(Cl)cccc1Oc1ccc(S(=O)(=O)Nc2ccccc2)cc1", "Potency": "inactive"}, {"smiles": "COc1cccc2c1OCC(C(=O)O)C2", "note": "(stereo unspecified)", "Potency": "inactive"}, {"smiles": "CCOc1cc(N2CCOCC2)c(OCC)cc1NC(=O)CSc1nccc(C)n1", "Potency": "inconclusive [inhibitor, partial curve, poor fit]"}, {"smiles": "CC(=O)c1ccc(NC(=O)CCCN2C(=O)C(c3ccccc3)Oc3cccnc32)cc1", "note": "(stereo unspecified)", "Potency": "inconclusive [inhibitor, single point]"}, {"smiles": "Cc1ccc(/C=N/NC(=O)c2cc(-c3ccc(C)o3)[nH]n2)cc1", "Potency": "inactive"}, {"smiles": "CC(=O)CCc1ccc(OCC(O)CNC2CCCc3ccccc32)cc1", "note": "(stereo unspecified)", "Potency": "inconclusive [inhibitor, single point]"}]}]}
